# The supplement of paper PMC8728848
# Some of the results follow.
# Experiments:
# Experiment in all cases: glycan array binding signal (z-score within array); higher = stronger binding
# Conditions in all cases: glycan notation: IUPAC condensed, linker removed
# [1] = target: Man(a1-2)Man(a1-6)[Man(a1-3)]Man(a1-6)[Man(a1-2)Man(a1-2)Man(a1-3)]Man(b1-4)GlcNAc(b1-4)GlcNAc
# Summary of the method: (§1)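 From the Consortium for Functional Glycomics database, 3228 arrays were curated, keeping only those whose protein sequence was available. Binding is given as a within-array Z-score averaged across arrays sharing a protein sequence and across linkers. Negative Z-scores can be read as non-binding.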
# Man(a1-3)[Man(a1-6)]Man = target: Man(a1-3)[Man(a1-6)]Man
# Summary of the method: as §1
# [2] = target: Man(a1-3)[Man(a1-6)]Man(a1-6)[Man(a1-2)Man(a1-3)]Man(b1-4)GlcNAc(b1-4)GlcNAc
# Summary of the method: as §1
# [3] = target: Man(a1-3)[Man(a1-6)]Man(a1-6)[Man(a1-3)]Man
# Summary of the method: as §1
# [4] = target: Man(a1-3)[Man(a1-6)]Man(a1-6)[Man(a1-3)]Man(b1-4)GlcNAc(b1-4)GlcNAc
# Summary of the method: as §1
# [5] = target: Man(a1-3)[Man(a1-6)]Man(b1-4)GlcNAc(b1-4)GlcNAc
# Summary of the method: as §1
# [6] = target: Man(a1-3)[Man(a1-6)]Man(b1-4)GlcNAc(b1-4)[Fuc(a1-6)]GlcNAc
# Summary of the method: as §1
# Man(a1-6)Man = target: Man(a1-6)Man
# Summary of the method: as §1
# Man(b1-4)GlcNAc = target: Man(b1-4)GlcNAc
# Summary of the method: as §1
# MurNAc(b1-4)GlcNAc = target: MurNAc(b1-4)GlcNAc
# Summary of the method: as §1
# Neu5Ac(a2-3)Gal = target: Neu5Ac(a2-3)Gal
# Summary of the method: as §1
# [7] = target: Neu5Ac(a2-3)Gal(b1-3)GalNAc
# Summary of the method: as §1
# [8] = target: Neu5Ac(a2-3)Gal(b1-3)GalNAc(b1-3)Gal(a1-4)Gal(b1-4)Glc
# Summary of the method: as §1
# [9] = target: Neu5Ac(a2-3)Gal(b1-3)GalNAc(b1-3)Gal(b1-4)GlcNAc
# Summary of the method: as §1
# [10] = target: Neu5Ac(a2-3)Gal(b1-3)GalNAc(b1-4)[Neu5Ac(a2-3)]Gal(b1-4)Glc
# Summary of the method: as §1
# [11] = target: Neu5Ac(a2-3)Gal(b1-3)GalNAc(b1-4)[Neu5Ac(a2-8)Neu5Ac(a2-3)]Gal(b1-4)Glc
# Summary of the method: as §1
# [12] = target: Neu5Ac(a2-3)Gal(b1-3)GalNAc6S
# Summary of the method: as §1
# [13] = target: Neu5Ac(a2-3)Gal(b1-3)GlcNAc
# Summary of the method: as §1
# [14] = target: Neu5Ac(a2-3)Gal(b1-3)GlcNAc(b1-2)Man
# Summary of the method: as §1
# [15] = target: Neu5Ac(a2-3)Gal(b1-3)GlcNAc(b1-2)Man(a1-3)[GlcNAc(b1-4)][Neu5Ac(a2-3)Gal(b1-3)GlcNAc(b1-2)Man(a1-6)]Man(b1-4)GlcNAc(b1-4)GlcNAc
# Summary of the method: as §1
# [16] = target: Neu5Ac(a2-3)Gal(b1-3)GlcNAc(b1-2)Man(a1-3)[Neu5Ac(a2-3)Gal(b1-3)GlcNAc(b1-2)Man(a1-6)]Man(b1-4)GlcNAc(b1-4)GlcNAc
# Summary of the method: as §1
# [17] = target: Neu5Ac(a2-3)Gal(b1-3)GlcNAc(b1-3)Gal(b1-3)GlcNAc
# Summary of the method: as §1
# [18] = target: Neu5Ac(a2-3)Gal(b1-3)GlcNAc(b1-3)Gal(b1-4)GlcNAc
# Summary of the method: as §1
# [19] = target: Neu5Ac(a2-3)Gal(b1-3)GlcNAc(b1-3)GalNAc
# Summary of the method: as §1
# [20] = target: Neu5Ac(a2-3)Gal(b1-3)GlcNAc(b1-4)Gal(b1-4)Glc
# Summary of the method: as §1
# [21] = target: Neu5Ac(a2-3)Gal(b1-3)GlcNAc(b1-6)GalNAc
# Summary of the method: as §1
# [22] = target: Neu5Ac(a2-3)Gal(b1-3)GlcNAc6S
# Summary of the method: as §1
# [23] = target: Neu5Ac(a2-3)Gal(b1-3)[Fuc(a1-4)]GlcNAc
# Summary of the method: as §1
# [24] = target: Neu5Ac(a2-3)Gal(b1-3)[Fuc(a1-4)]GlcNAc(b1-3)Gal(b1-3)[Fuc(a1-4)]GlcNAc
# Summary of the method: as §1
# [25] = target: Neu5Ac(a2-3)Gal(b1-3)[Fuc(a1-4)]GlcNAc(b1-3)Gal(b1-4)[Fuc(a1-3)]GlcNAc
# Summary of the method: as §1
# [26] = target: Neu5Ac(a2-3)Gal(b1-3)[GlcNAc(b1-6)]GalNAc
# Summary of the method: as §1
# [27] = target: Neu5Ac(a2-3)Gal(b1-3)[Neu5Ac(a2-3)Gal(b1-4)]GlcNAc
# Summary of the method: as §1
# [28] = target: Neu5Ac(a2-3)Gal(b1-3)[Neu5Ac(a2-6)]GalNAc
# Summary of the method: as §1
# [29] = target: Neu5Ac(a2-3)Gal(b1-3)[Neu5Ac(a2-6)]GlcNAc(b1-3)[Fuc(a1-3)[Gal(b1-4)]GlcNAc(b1-6)]Gal(b1-4)Glc
# Summary of the method: as §1
# [30] = target: Neu5Ac(a2-3)Gal(b1-3)]Neu5Ac(a2-3)Gal(b1-4)]GlcNAc
# Summary of the method: as §1
# Neu5Ac(a2-3)Gal(b1-4)Glc = target: Neu5Ac(a2-3)Gal(b1-4)Glc
# Summary of the method: as §1
# [31] = target: Neu5Ac(a2-3)Gal(b1-4)GlcNAc
# Summary of the method: as §1
binder,measurement,setting,value
"CSA (Cytisus scoparius), P29257 (protein) SEELSFSFTKFKTDQKNLILQRDALITPTGKLQLTTVENGKPAAYSLGRALYSTPIHIWDKSTGDEASFATFFSFVISDAPNPSTAATDGLAFFLAPADTQPQSAGGYLGLFEKDSSYNSSNQIVAVEFDTYYNSAWDPQTNPHIGIDVNTIKSKKVSSWGFKNGNVATVLITYQPSSKSLVASLVYPSGQTSDKTSYIISANVDLKATVPEWVRIGFSATTGQTDNYIETHDILSWSFKSKLPATKN",glycan array binding signal (z-score),[1],-0.191
same,glycan array binding signal (z-score),Man(a1-3)[Man(a1-6)]Man,-0.223
same,glycan array binding signal (z-score),[2],0.383
same,glycan array binding signal (z-score),[3],-0.151
same,glycan array binding signal (z-score),[4],-0.181
same,glycan array binding signal (z-score),[5],-0.142
same,glycan array binding signal (z-score),[6],-0.225
same,glycan array binding signal (z-score),Man(a1-6)Man,-0.112
same,glycan array binding signal (z-score),Man(b1-4)GlcNAc,-0.105
same,glycan array binding signal (z-score),MurNAc(b1-4)GlcNAc,-0.202
same,glycan array binding signal (z-score),Neu5Ac(a2-3)Gal,-0.162
same,glycan array binding signal (z-score),[7],-0.043
same,glycan array binding signal (z-score),[8],-0.17
same,glycan array binding signal (z-score),[9],-0.177
same,glycan array binding signal (z-score),[10],-0.247
same,glycan array binding signal (z-score),[11],-0.182
same,glycan array binding signal (z-score),[12],-0.194
same,glycan array binding signal (z-score),[13],-0.179
same,glycan array binding signal (z-score),[14],-0.256
same,glycan array binding signal (z-score),[15],-0.231
same,glycan array binding signal (z-score),[16],-0.028
same,glycan array binding signal (z-score),[17],-0.208
same,glycan array binding signal (z-score),[18],-0.123
same,glycan array binding signal (z-score),[19],-0.18
same,glycan array binding signal (z-score),[20],-0.204
same,glycan array binding signal (z-score),[21],-0.235
same,glycan array binding signal (z-score),[22],-0.075
same,glycan array binding signal (z-score),[23],-0.194
same,glycan array binding signal (z-score),[24],-0.157
same,glycan array binding signal (z-score),[25],-0.155
same,glycan array binding signal (z-score),[26],-0.238
same,glycan array binding signal (z-score),[27],-0.17
same,glycan array binding signal (z-score),[28],-0.159
same,glycan array binding signal (z-score),[29],-0.146
same,glycan array binding signal (z-score),[30],-0.14
same,glycan array binding signal (z-score),Neu5Ac(a2-3)Gal(b1-4)Glc,-0.15
same,glycan array binding signal (z-score),[31],-0.215
